Experimental findings from the supplement of paper PMC10369915 are described below.

The list shows a part of the results. Cut-off read from the data, not from the text of the source: active = 3.2 or more and inactive = the rest. Most of these values are background signal.
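Note: displayed peptides selected on beads carrying the immobilized SH2 domain, with library peptides lacking any tyrosine serving as negative controls.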

In the first test the target is SHP2 C-SH2 domain E139D. As to the kind of experiment: enrichment score (SH2-bound / input frequency) (ratio); bacterial display of known human phosphotyrosine sites (pTyr-Var adds point mutants) read by sequencing; higher = stronger binding; tyrosines were phosphorylated by kinases first. The note with it: peptide library: pTyr-Var.
Take ASPALYRLDLD [TRIL_Y352]: the enrichment score is inactive: 0.865.

As to VDTPMYATMQR [TPO_Y55_A53P], the enrichment score was inactive: 0.717.

Regarding PMWHPYKVDVT [TP53TG5_Y255], the enrichment score was inactive: 1.39.

With CTTIHYNDMCN [TP53_Y234_Y236D], the enrichment score was inactive: 1.95.

Consider PLDGEYFTLPI [TP53_Y327_Q331P], for which the enrichment score was inactive: 0.895.

For PLDGGYFTLQI [TP53_Y327_E326G], the enrichment score is inactive: 1.38.

Take CTTIHYNCMCN [TP53_Y234_Y236C]: the enrichment score was inactive: 1.23.

For PMWHPYKADVT [TP53TG5_Y255_V257A], the enrichment score is inactive: 1.28.

As for PLDGEYFTLQV [TP53_Y327_I332V], the enrichment score was inactive: 0.97.

For EADRKYEEVAC [TPM3_Y163_R168C], the enrichment score is inactive: 0.454.

For EADRKYEEVAG [TPM3_Y163_R168G], the enrichment score is inactive: 0.464.

As to CTTIHYNSMCN [TP53_Y234_Y236S], the enrichment score is inactive: 1.85.

As to PLDGEYLTLQI [TP53_Y327_F328L], the enrichment score was inactive: 0.473.

Take RAMPVYKEAEH [TP63_Y231_K233E]: the enrichment score is inactive: 0.922.

As for CTTIHKNFMCN [TP53_Y234_Y234K_YF], the enrichment score was inactive: 0.756.

Take PLDGEYSTLQI [TP53_Y327_F328S]: the enrichment score was inactive: 0.576.

Regarding CTTIHSNFMCN [TP53_Y234_Y234S_YF], the enrichment score is inactive: 2.27.

For the molecule CTTIHQNFMCN [TP53_Y234_Y234Q_YF], the enrichment score was inactive: 2.14.

The target of a further test is SHP2 C-SH2 domain wild-type. Described as above. The note with it: peptide library: pTyr-Var.
As to ASPALYRLDLD [TRIL_Y352], the enrichment score was inactive: 0.765.

In the case of VDTPMYATMQR [TPO_Y55_A53P], the enrichment score was inactive: 0.733.

Take PMWHPYKVDVT [TP53TG5_Y255]: the enrichment score is inactive: 2.06.

For CTTIHYNDMCN [TP53_Y234_Y236D], the enrichment score is inactive: 1.37.

Consider PLDGEYFTLPI [TP53_Y327_Q331P], for which the enrichment score was inactive: 0.908.

For the molecule PLDGGYFTLQI [TP53_Y327_E326G], the enrichment score is inactive: 1.82.

Turning to CTTIHYNCMCN [TP53_Y234_Y236C], the enrichment score was inactive: 1.13.

With PMWHPYKADVT [TP53TG5_Y255_V257A], the enrichment score was inactive: 0.981.

With PLDGEYFTLQV [TP53_Y327_I332V], the enrichment score is inactive: 1.

Turning to EADRKYEEVAC [TPM3_Y163_R168C], the enrichment score is inactive: 0.587.

Consider EADRKYEEVAG [TPM3_Y163_R168G], for which the enrichment score is inactive: 0.393.

As to CTTIHYNSMCN [TP53_Y234_Y236S], the enrichment score is inactive: 2.04.

Turning to PLDGEYLTLQI [TP53_Y327_F328L], the enrichment score is inactive: 0.656.

For the molecule RAMPVYKEAEH [TP63_Y231_K233E], the enrichment score was inactive: 0.746.

Turning to CTTIHKNFMCN [TP53_Y234_Y234K_YF], the enrichment score is inactive: 0.84.

In the case of PLDGEYSTLQI [TP53_Y327_F328S], the enrichment score was inactive: 0.725.

As to CTTIHSNFMCN [TP53_Y234_Y234S_YF], the enrichment score is inactive: 2.27.

CTTIHQNFMCN [TP53_Y234_Y234Q_YF]: the enrichment score was inactive: 2.24.

For the next test, the target named is SHP2 N-SH2 domain L43F. The description is as above. The settings on record: peptide library: pTyr-Var.
On to ASPALYRLDLD [TRIL_Y352], for which the enrichment score was inactive: 0.903.

With VDTPMYATMQR [TPO_Y55_A53P], the enrichment score is inactive: 0.732.

On to PMWHPYKVDVT [TP53TG5_Y255], for which the enrichment score was inactive: 2.23.

In the case of CTTIHYNDMCN [TP53_Y234_Y236D], the enrichment score is inactive: 1.46.

For the molecule PLDGEYFTLPI [TP53_Y327_Q331P], the enrichment score is inactive: 0.825.

As for PLDGGYFTLQI [TP53_Y327_E326G], the enrichment score was inactive: 0.879.

For the molecule CTTIHYNCMCN [TP53_Y234_Y236C], the enrichment score was inactive: 1.19.

As for PMWHPYKADVT [TP53TG5_Y255_V257A], the enrichment score was inactive: 1.45.

Consider PLDGEYFTLQV [TP53_Y327_I332V], for which the enrichment score was inactive: 0.69.

For EADRKYEEVAC [TPM3_Y163_R168C], the enrichment score is inactive: 0.479.

For EADRKYEEVAG [TPM3_Y163_R168G], the enrichment score was inactive: 0.258.

For the molecule CTTIHYNSMCN [TP53_Y234_Y236S], the enrichment score was inactive: 2.07.

Turning to PLDGEYLTLQI [TP53_Y327_F328L], the enrichment score was inactive: 0.848.

For RAMPVYKEAEH [TP63_Y231_K233E], the enrichment score is inactive: 0.653.

As for CTTIHKNFMCN [TP53_Y234_Y234K_YF], the enrichment score was inactive: 0.837.

Consider PLDGEYSTLQI [TP53_Y327_F328S], for which the enrichment score is inactive: 0.567.

In the case of CTTIHSNFMCN [TP53_Y234_Y234S_YF], the enrichment score was inactive: 2.24.

In the case of CTTIHQNFMCN [TP53_Y234_Y234Q_YF], the enrichment score was inactive: 2.29.

Another test deals with SHP2 N-SH2 domain T42A. The test is described as above. The settings on record: peptide library: pTyr-Var.
Regarding ASPALYRLDLD [TRIL_Y352], the enrichment score was inactive: 0.693.

With VDTPMYATMQR [TPO_Y55_A53P], the enrichment score was inactive: 0.755.

Take PMWHPYKVDVT [TP53TG5_Y255]: the enrichment score is inactive: 1.53.

Take CTTIHYNDMCN [TP53_Y234_Y236D]: the enrichment score was inactive: 1.11.

Take PLDGEYFTLPI [TP53_Y327_Q331P]: the enrichment score was inactive: 0.809.

Take PLDGGYFTLQI [TP53_Y327_E326G]: the enrichment score is inactive: 1.24.

Regarding CTTIHYNCMCN [TP53_Y234_Y236C], the enrichment score was inactive: 1.01.

As for PMWHPYKADVT [TP53TG5_Y255_V257A], the enrichment score was inactive: 1.02.

Turning to PLDGEYFTLQV [TP53_Y327_I332V], the enrichment score was inactive: 0.611.

Turning to EADRKYEEVAC [TPM3_Y163_R168C], the enrichment score is inactive: 1.07.

In the case of EADRKYEEVAG [TPM3_Y163_R168G], the enrichment score is inactive: 0.511.

For CTTIHYNSMCN [TP53_Y234_Y236S], the enrichment score is inactive: 1.69.

Turning to PLDGEYLTLQI [TP53_Y327_F328L], the enrichment score is inactive: 0.532.

As for RAMPVYKEAEH [TP63_Y231_K233E], the enrichment score was inactive: 0.638.

CTTIHKNFMCN [TP53_Y234_Y234K_YF]: the enrichment score was inactive: 0.792.

Turning to PLDGEYSTLQI [TP53_Y327_F328S], the enrichment score is inactive: 0.541.

As for CTTIHSNFMCN [TP53_Y234_Y234S_YF], the enrichment score was inactive: 2.09.

CTTIHQNFMCN [TP53_Y234_Y234Q_YF]: the enrichment score was inactive: 1.88.

The next test concerns the target SHP2 N-SH2 domain T52S. The test is described as above. The note with it: peptide library: pTyr-Var.
Turning to ASPALYRLDLD [TRIL_Y352], the enrichment score is inactive: 0.878.

Turning to VDTPMYATMQR [TPO_Y55_A53P], the enrichment score was inactive: 0.564.

On to PMWHPYKVDVT [TP53TG5_Y255], for which the enrichment score was inactive: 1.95.

Regarding CTTIHYNDMCN [TP53_Y234_Y236D], the enrichment score was inactive: 1.3.

Consider PLDGEYFTLPI [TP53_Y327_Q331P], for which the enrichment score was inactive: 0.725.

As to PLDGGYFTLQI [TP53_Y327_E326G], the enrichment score is inactive: 1.04.

For the molecule CTTIHYNCMCN [TP53_Y234_Y236C], the enrichment score is inactive: 0.951.

Consider PMWHPYKADVT [TP53TG5_Y255_V257A], for which the enrichment score is inactive: 1.21.

PLDGEYFTLQV [TP53_Y327_I332V]: the enrichment score is inactive: 0.737.

EADRKYEEVAC [TPM3_Y163_R168C]: the enrichment score is inactive: 0.489.

In the case of EADRKYEEVAG [TPM3_Y163_R168G], the enrichment score was inactive: 0.425.

For CTTIHYNSMCN [TP53_Y234_Y236S], the enrichment score is inactive: 2.25.

With PLDGEYLTLQI [TP53_Y327_F328L], the enrichment score is inactive: 0.73.

Consider RAMPVYKEAEH [TP63_Y231_K233E], for which the enrichment score is inactive: 0.896.

On to CTTIHKNFMCN [TP53_Y234_Y234K_YF], for which the enrichment score was inactive: 0.787.

In the case of PLDGEYSTLQI [TP53_Y327_F328S], the enrichment score was inactive: 0.77.

Take CTTIHSNFMCN [TP53_Y234_Y234S_YF]: the enrichment score is inactive: 2.29.

In the case of CTTIHQNFMCN [TP53_Y234_Y234Q_YF], the enrichment score is inactive: 2.14.

The target of another test is SHP2 N-SH2 domain wild-type. The description is as above. The note with it: peptide library: pTyr-Var.
ASPALYRLDLD [TRIL_Y352]: the enrichment score was inactive: 0.789.

As for VDTPMYATMQR [TPO_Y55_A53P], the enrichment score is inactive: 0.728.

For PMWHPYKVDVT [TP53TG5_Y255], the enrichment score was inactive: 1.74.

On to CTTIHYNDMCN [TP53_Y234_Y236D], for which the enrichment score is inactive: 1.12.

As to PLDGEYFTLPI [TP53_Y327_Q331P], the enrichment score was inactive: 0.956.

In the case of PLDGGYFTLQI [TP53_Y327_E326G], the enrichment score was inactive: 1.16.

In the case of CTTIHYNCMCN [TP53_Y234_Y236C], the enrichment score is inactive: 1.27.

In the case of PMWHPYKADVT [TP53TG5_Y255_V257A], the enrichment score is inactive: 1.07.

For the molecule PLDGEYFTLQV [TP53_Y327_I332V], the enrichment score was inactive: 0.726.

Take EADRKYEEVAC [TPM3_Y163_R168C]: the enrichment score is inactive: 0.642.

As to EADRKYEEVAG [TPM3_Y163_R168G], the enrichment score is inactive: 0.391.

CTTIHYNSMCN [TP53_Y234_Y236S]: the enrichment score was inactive: 1.56.

For the molecule PLDGEYLTLQI [TP53_Y327_F328L], the enrichment score was inactive: 0.635.

Take RAMPVYKEAEH [TP63_Y231_K233E]: the enrichment score is inactive: 1.08.

In the case of CTTIHKNFMCN [TP53_Y234_Y234K_YF], the enrichment score is inactive: 0.884.

Take PLDGEYSTLQI [TP53_Y327_F328S]: the enrichment score was inactive: 0.621.

Consider CTTIHSNFMCN [TP53_Y234_Y234S_YF], for which the enrichment score was inactive: 2.03.

For CTTIHQNFMCN [TP53_Y234_Y234Q_YF], the enrichment score was inactive: 1.53.
